According to the supplement of paper PMC12217912:
The other results are listed elsewhere or left out. Sequences were assembled here from the parent chain. Values near 0.05 are background.

B1: TEV protease; numbered along this chain (parent)
chain: MGESLFKGPRDYNPISSSICHLTNESDGHTTSLYGIGFGPFIITNKHLFRRNNGTLVVQSLHGVFKVKDTTTLQQHLVDGRDMIIIRMPKDFPPFPQKLKFREPQREERICLVTTNFQTKSMSSMVSDTSCTFPSGDGIFWKHWIQTKDGQCGSPLVSTRDGFIVGIHSASNFTNTNNYFTSVPKNFMELLTNQEAQQWVSGWRLNADSVLWGGHKVFMVKPEEPFQPVKEATQL

Variants of: B1
Test: raw area under fraction-flipped curve 0-4 h after induction (AUC4h, not background-subtracted), DNA-recorder readout of cleavage of the substrate (dimensionless); higher = more cleavage of the substrate by the protease variant
Details: temperature: 34 °C; time window: 0-4 h after rhamnose induction
Description: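 In vivo DNA recorder in E. coli TOP10(DE3) ΔrhaA at 34 °C. Each TEVp single-site mutant (parent TEVp 0) is paired with a single-site variant of the 7-mer TEVs (canonical ENLYFQ|S). The substrate sits between flexible linkers in a Bxb1-sfGFP-TEVs-SsrA fusion, so cleavage stabilises Bxb1 and speeds flipping of a recombination array, read by NGS. The value is the raw area under the fraction-flipped curve over 0-4 h after rhamnose induction (AUC4h), with ≥20 reads per time point. It is not background-subtracted; inactive controls average about 0.047.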
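Also: Bxb1 expression induced with 0.2% (w/v) L-rhamnose at OD600 near 0.5, cultures sampled hourly, flipped fraction per protease–substrate barcode pair counted by paired-end Illumina sequencing.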

Variant	area with substrate ENLYFQA	area with substrate ENLYFQC	area with substrate ENLYFQD	area with substrate ENLYFQG	area with substrate ENLYFQH	area with substrate ENLYFQK	area with substrate ENLYFQL	area with substrate ENLYFQM	area with substrate ENLYFQR	area with substrate ENLYFQS	area with substrate ENLYFQV	area with substrate ENLYFQW	area with substrate ENLYFQY	area with substrate ENLYFQE	area with substrate ENLYFQF	area with substrate ENLYFQI	area with substrate ENLYFQN	area with substrate ENLYFQP	area with substrate ENLYFQQ	area with substrate ENLYFQT
N175Y	0.0827	0.0991	0.039	0.0726	0.0685	0.0583	0.0506	0.063	0.0598	0.0818	0.0588	0.0519	0.0688							
F187C	0.0908	0.124						0.0924		0.101		0.0537	0.0562							
S17E	0.0948	0.115		0.101	0.0791	0.0632	0.0131	0.103	0.0616	0.106		0.0765	0.0558	0.0578	0.0701	0.058	0.0787	0.0712	0.0564	0.0806
L156V	0.109	0.117		0.0733	0.0757	0.0687	0.0485	0.102	0.0596	0.0992	0.0435	0.0659	0.074	0.0614			0.0633		0.0687	0.0472
W141Q	0.0699	0.0719		0.0445	0.0514	0.0494	0.0509	0.0453	0.0586	0.0635			0.0521		0.0572	0.0549	0.0359	0.0614		0.0526
P222Y	0.0854	0.121	0.0601		0.0886	0.0622	0.0625	0.0735	0.0596	0.093	0.0597	0.0218	0.0638			0.097	0.0734	0.0502		
W212D	0.0587	0.075				0.063	0.0586		0.0586	0.0663		0.0608								0.0687
V183F	0.0814	0.104		0.0973	0.0685	0.0609	0.0811	0.0966	0.0608	0.0955	0.048	0.062	0.112			0.0673	0.0797			0.061
F65T	0.0858	0.0744	0.0716	0.101		0.0576	0.0616	0.106	0.0647	0.104			0.0864		0.0837		0.0937			0.0507
F95G	0.0502	0.0648	0.0453	0.0607		0.0514				0.0659	0.0413	0.0502	0.0513				0.0334	0.0416		
R10N	0.0868	0.103			0.0692		0.0567	0.0622	0.0625	0.0856			0.0743			0.0553	0.0772	0.0294		0.0384
R204Q	0.101	0.127	0.0739	0.119	0.108	0.0859	0.0648	0.0932	0.0549	0.118	0.0582	0.0669	0.0907		0.087	0.0603	0.0835	0.0583	0.059	0.0795
I15Y	0.105	0.0999		0.0957	0.0909	0.0598	0.0613	0.098	0.0588	0.0984	0.0748	0.0629	0.0793		0.0475	0.0597	0.0843	0.0574	0.0676	0.0724
Y12D	0.0966	0.102		0.0931	0.0778	0.0743	0.0601	0.0955	0.062	0.1	0.0606	0.076	0.0756		0.0594	0.0557		0.0629		0.0597
P14R	0.129	0.128		0.105	0.0966	0.0654	0.0647	0.0886		0.108	0.0612		0.0822			0.0629	0.0837	0.0811		0.0587
Q105G	0.0959	0.0707		0.0668	0.059	0.0696	0.0572	0.0758	0.0623	0.0903	0.0479	0.0492	0.0711			0.0629	0.0673	0.0579	0.0862	0.0622
Q74F		0.0884	0.0573	0.104		0.0495	0.0503		0.0609	0.0899	0.0534		0.064		0.0807	0.0599	0.08	0.0549		0.0705
S201L		0.091	0.0645		0.0737	0.0382	0.0677		0.0755	0.087		0.0568			0.0915	0.0613				0.0762
F226K		0.0947	0.0711		0.0745		0.0625	0.108	0.0585	0.106	0.0596	0.0635	0.0763		0.0852	0.0542	0.0768			0.0656
Q151W		0.107	0.0571	0.0802	0.0636	0.0643	0.0683		0.0565	0.088		0.0599	0.0717		0.0615	0.06	0.0596			0.0614
R102Q		0.0651		0.0662		0.0511	0.0511	0.055	0.0678	0.0569	0.0504		0.0431						0.0439	0.0484
E107N		0.107	0.0641	0.108		0.0502	0.0605	0.0692	0.0575	0.114		0.0693			0.0829	0.0643	0.0676			
D161T		0.0943		0.0932	0.0675	0.0633	0.0483	0.0711	0.0629	0.0917	0.0674	0.0663	0.076			0.0586	0.0658		0.0656	0.0355
E223C		0.108	0.0782	0.0704		0.0647	0.0721	0.0682	0.0621	0.0928		0.088				0.0612	0.0745	0.0566	0.0049	0.0626
Q74W		0.0951	0.0553	0.071	0.0749	0.064	0.0549	0.0775	0.0411	0.0857	0.0584		0.0821			0.0541				
